The text below walks through data of PubChem BioAssay AID1508624 (National Center for Advancing Translational Sciences (NCATS), 2021).

SMILES strings stand for the structures. Among all 48,000 compounds or so, about 120 (0.25%) were called active. Inconclusive results (about 4%) are left out. The call rests on the fitted dose curve; in most records, active means well fitted activation curve with a large enough effect; inconclusive means small, poorly fitted or top-dose-only effect, or another doubt; inactive means no such curve, though single readings can be large or run the other way. The list shows a part of the results.

The assay can be described thus: Primary qHTS for Identification of Small Molecule Activators of Huntingtin-Antisense Promoter Activity. Further: nearly all actives have a fitted effect of over 55% in size. To be noted: HEK293 HTT-AS promoter firefly luciferase reporter, 24 h; series mostly up to 57.5 µM; activity change, positive = activation: at the top concentration. The procedure, abridged: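 Quantitative HTS used concentration series of up to 57.5 uM final on HEK293 luciferase reporter cells, 24 h at 37 degrees C. Readout was Dual-Glo firefly luminescence.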
Turning to `Cc1ccc2oc3c(c(=O)c2c1)C(c1cccc(O)c1)N(CCCN1CCOCC1)C3=O` (stereo not drawn), the “activity change, positive = activation” value is inactive: -8.87%.
The result for `Nc1[nH]c(=O)ncc1F` reads “inactive”; that for `CCOc1ccc(CCNC(=O)c2ccc(C)c(-n3c(C)nc4cccnc43)c2)cc1OCC`, inactive: -10.2%.
The result for `Cc1cccc(-c2nnc(SCC(=O)NC3CCCCC3)o2)c1` reads inactive: -20.3%; that for `COc1ccc(N(Cc2cccs2)C(=O)COc2ccc([N+](=O)[O-])cc2)cc1`, inactive: -31.8%; that for `Cc1cc(Br)ccc1NC(=O)CN1C(=O)c2cccnc2Sc2ccccc21`, inactive: -14.2%.
Take `CCOc1ccc(N(CC(=O)Nc2ccc3c(c2)OCO3)S(=O)(=O)c2ccccc2)cc1`: the “activity change, positive = activation” value was inactive: -32.9%.
The result for `CC(C)Sc1ncc(Cl)c(C(=O)Nc2c(C(=O)Nc3ccccc3)oc3ccccc23)n1` reads inactive: 15.7%.
With `O=C1c2oc3ccccc3c(=O)c2C(c2cccc(O)c2)N1Cc1ccc(F)cc1` (stereo not drawn), the “activity change, positive = activation” value is inactive: -29.4%.
The result for `Cc1nn(C)c2c1c(-c1ccccc1)cc(=O)n2Cc1c(F)cccc1Cl` reads inactive: -22.2%; that for `Cc1ccccc1Nc1c(-c2ccccc2O)nc2sccn12`, inactive: -30.3%.
For `CCc1ccc(NS(=O)(=O)c2ccc3[nH]cc(C(=O)N4CCCCCC4)c(=O)c3c2)cc1`, the “activity change, positive = activation” value was inactive: 15.6%.
The result for `O=C1CN(C(=O)c2ccc(S(=O)(=O)N3CCCC3)cc2)C(c2ccc(F)cc2)c2cc(F)ccc2N1` (stereo not drawn) reads inactive: -4.14%; that for `CCN(c1ccccc1)S(=O)(=O)c1nnc(NC(=O)C(C)Oc2ccccc2)s1` (stereo not drawn), inactive: -26.7%; that for `CCOC(=O)Cc1ccc(NC(=O)N2CCC(CN3CCC(C)CC3)CC2)cc1`, inactive: -8.25%.
On to `COc1ccc(N(C(=O)c2ccc(C)cc2)S(=O)(=O)c2ccc(Cl)cc2)cc1`, for which the activity change, positive = activation is inactive: 13.2% [at 11.5 µM, percent change from vehicle, -100% = no light].
The result for `COc1cc(C2C(C(=O)Nc3ccc(C)cc3C)=C(C)Nc3nc(SCc4ccccc4)nn32)cc(OC)c1OC` (stereo not drawn) reads inactive: -12.4%.
The result for `COc1cc2[nH]c(=O)n(CCCCCC(=O)N3CCN(c4ccc(Cl)cc4)CC3)c(=O)c2cc1OC` reads inactive: -2.86%.
Regarding `Cc1cccc(Cn2c(=O)n(CC3CCC(C(=O)N4CCC(C)CC4)CC3)c(=O)c3sccc32)c1` (stereo not drawn), the “activity change, positive = activation” value was inactive: -16.2%.
`O=C(CSc1cn(CC(=O)N2CCCC2)c2ccccc12)Nc1ccccc1C(F)(F)F`: the “activity change, positive = activation” value is inactive: -29.5%.
The result for `Cc1ccc(CNC(=O)CN(c2cc(C)cc(C)c2)S(=O)(=O)c2c(C)noc2C)cc1` reads inactive: -9.16%.
The result for `Cc1nc2cc(-c3ccccc3)nn2c(C)c1CCC(=O)NCc1cccc(Cl)c1` reads inactive: -71.2%; that for `COC(=O)c1ccccc1NC(=O)c1ccc2c(Cl)c3c(nc2c1)CCCC3`, inactive: 19%.
For the compound `COc1cc2nc(NCc3ccccc3)n3nc(-c4ccccc4)nc3c2cc1OC`, the “activity change, positive = activation” value is inactive: -1.57%.
For the compound `CCOC(=O)Cc1ccc(NC(=O)N2CC(C)Oc3ccc(Cl)cc32)cc1` (stereo not drawn), the “activity change, positive = activation” value is inactive: -22.3%.
The result for `Cc1nc2ccn(Cc3cccs3)c(=O)c2cc1C(=O)N1CCN(c2ccccc2)CC1` reads inactive: -12.4%; that for `Cc1[nH]nc2ccc(-c3cncc(OC[C@@H](N)Cc4ccccc4)c3)cc12`, inactive: -43.1%; that for `O=C(O)C(Cc1cc(I)c(O)c(I)c1)c1ccccc1` (stereo not drawn), inactive: -18%.
Take `Cc1ccc(-n2cnc3cc(C(=O)NCc4ccccc4Cl)ccc32)c(C)c1`: the “activity change, positive = activation” value was inactive: -29.5%.
With `COc1ccc(CC(=O)NCc2ccc3c(c2)CCN3C(=O)c2cccc(C)c2)cc1`, the “activity change, positive = activation” value was inactive: -56%.
The result for `Cc1nc(-n2nc(C)c(Cc3ccc4c(c3)OCO4)c2C)sc1C(=O)Nc1ccc(Cl)cc1` reads inactive: -18.3%.
As for `CCCOc1cccc(C2c3c(oc4ccc(F)cc4c3=O)C(=O)N2Cc2ccc3c(c2)OCO3)c1` (stereo not drawn), the “activity change, positive = activation” value is inactive: -8.62%.
With `Cc1cccc(Cn2cccc2CNS(=O)(=O)c2ccc(C)c(C)c2)c1`, the “activity change, positive = activation” value is inactive: -16.6%.
The result for `O=C(c1ccco1)n1nc(-c2ccc(Cl)cc2)nc1NCc1ccc(F)cc1` reads inactive: 4.23%; that for `CN1c2ccccc2C(=O)N2CCc3c([nH]c4ccccc34)C21` (stereo not drawn), inactive: -57.2%; that for `CN1CCSc2ccc(C(=O)NCc3ccccc3)cc21`, inactive: 18.5%.
As to `CCCCN(Cc1ccco1)C(=O)Cn1ncc2c([nH]c3ccccc32)c1=O`, the “activity change, positive = activation” value was inactive: -18.9%.
As for `COc1ccc(C2C(C(=O)Nc3ccccc3)=C(C)Nc3nc(-c4ccccc4Cl)nn32)cc1OC` (stereo not drawn), the “activity change, positive = activation” value is inactive: -9.47%.
`CCOCCCNc1nc2cc(OC)c(OC)cc2c2nc(-c3ccccc3)nn12`: the “activity change, positive = activation” value was inactive: -2.28%.
As for `CCOC(=O)c1scc(-c2ccc(C)cc2)c1S(=O)(=O)Nc1ccc(OC)c(Cl)c1`, the “activity change, positive = activation” value is inactive: -33.1%.
The result for `Cc1ccc(NC(=O)Cn2c(=O)n(CCC(=O)NCc3ccccc3Cl)c(=O)c3ccccc32)c(C)c1` reads inactive: -13.3%; that for `O=C(Nc1ccc2nc(SCCOc3ccccc3)sc2c1)c1ccc2c(c1)OCO2`, inactive: -7.53%.
As for `Cc1nc2nc(SCC(=O)N(Cc3ccccc3)C(C)C)nn2c(C)c1Cc1ccccc1Cl`, the “activity change, positive = activation” value was inactive: -4.09%.
The result for `CSc1ccc(CCNc2ncnc3onc(-c4ccc(Cl)cc4)c23)cc1` reads inactive: -53%; that for `CCc1ccc2ncc3c(-c4ccc(C)cc4)nn(CC(=O)Nc4ccc(C)cc4)c3c2c1`, inactive: 4.69%.
The result for `COc1ccc(Oc2nc3c(C)cccn3c(=O)c2/C=C(\C#N)c2nc3ccccc3[nH]2)cc1` reads inactive: -8.63%; that for `Cc1cc(C)c(NC(=O)Cn2c(=O)n(-c3ccc(F)cc3)c(=O)c3c(C)c(C(=O)N(C)C)sc32)c(C)c1`, inactive: -14.7%.
For the compound `COC(=O)c1cc2occc2n1Cc1nc(-c2cccc(Br)c2)oc1C`, the “activity change, positive = activation” value is inactive: 16.4%.
The result for `CCOC(=O)N1CCN(Cc2nc3cc(NC(=O)c4ccccc4OC)ccc3n2C(C)C)CC1` reads inactive: -44.3%.
With `Cc1ccc(-n2c(=O)c3ccc(C(=O)NCc4ccco4)cc3n(Cc3ccc(Cl)cc3)c2=O)cc1`, the “activity change, positive = activation” value is inactive: -17.3%.
The result for `Cc1ccccc1CNCCSc1nnnn1-c1ccccc1` reads inactive: 17.1%; that for `Cc1ccc2c(c1)N(CC(=O)NCCCN1CCCCC1C)C(=O)c1cccnc1O2` (stereo not drawn), inactive: -2.82%.
The result for `Cc1ccc2c(c1)N(S(=O)(=O)c1ccc3c(c1)NC(=O)CC(=O)N3)CCO2` reads inactive: -3.7%.
The result for `COc1ccc(-n2c(=O)c3ccc(C(=O)NCc4ccc(C)cc4)cc3n(Cc3ccc(C)cc3)c2=O)cc1` reads inactive: -8.84%; that for `COc1ccc(CNC(=O)c2nc(S(=O)(=O)Cc3ccccc3)ncc2Cl)cc1`, inactive: -90.7%; that for `Cc1ccc(-n2nc3c(=O)n(CC(=O)NCc4ccco4)nc(C)c3c2C)cc1`, inactive: -16.6%.
For `COc1ccc(CCNC(=O)CCCn2c(SCC(N)=O)nc3cc4c(cc3c2=O)OCO4)cc1OC`, the “activity change, positive = activation” value is inactive: -15.1%.
On to `CCOC(=O)N1CCc2c(sc3c2c(=O)n(Cc2ccccc2)c(=O)n3Cc2ccc(C)cc2)C1`, for which the “activity change, positive = activation” value is inactive: -16.6%.
The result for `COc1ccc(CNC(=O)C2=C(C)C(=O)OC23CCN(C(C)=O)CC3)cc1` reads inactive: -4.64%; that for `CCCCOc1ccccc1C(=O)Nc1onc2c1CCCC2`, inactive: -17.2%; that for `CC1CCN(c2oc(-c3ccc(COc4ccc(Cl)cc4)o3)nc2C#N)CC1`, inactive: -25.2%.
The result for `CCOc1ccccc1CNC(=O)c1ccc(Cn2c(SCc3ccccc3)nc3cccnc32)cc1` reads inactive: 4.89%.
The result for `Cc1cc(C)c2nc(NC(=O)c3ccc(S(=O)(=O)N4CCC(C)CC4)cc3)sc2c1` reads inactive: -46.2%; that for `CC(C)OC(=O)/C(C#N)=C/c1ccc(-c2ccc(Cl)c(Cl)c2)o1`, inactive: 4.55%; that for `CCOC(=O)c1ccc(NC(=O)CC2C(=O)N(c3ccc(F)cc3)C(=O)N2Cc2ccc(C)cc2)cc1` (stereo not drawn), inactive: -32.7%.
Turning to `COc1ccc(Nc2cc(C(=O)NCCCN(C)Cc3ccccc3)c3ccccc3n2)cc1`, the “activity change, positive = activation” value is inactive: -18.3%.
As to `CCOc1cc(C2Sc3ccccc3NC3=C2C(=O)c2ccccc23)ccc1O` (stereo not drawn), the “activity change, positive = activation” value was inactive: -32.3%.
The result for `COc1ccc(C(=O)Nc2ccccc2-c2nc3ccccc3s2)c(OC)c1` reads inactive: -22.5%; that for `CCOC(=O)c1cnc2ccc(Cl)cc2c1Nc1ccc(OCC)cc1`, inactive: -10.9%; that for `Cc1cccn2c(=O)cc(COc3cccc(NC(=O)COc4ccccc4)c3)nc12`, inactive: 9.5%.
`COc1cccc(-c2nc3c(c(SCC(=O)Nc4cc(C)ccc4C)n2)Cc2c(CO)cnc(C)c2O3)c1`: the “activity change, positive = activation” value was inactive: -10.3%.
The result for `CC(=O)c1ccc(NC(=O)CSc2nc(C3CCCC3)nc3c2c(=O)n(C)c(=O)n3C)cc1` reads inactive: -0.686%; that for `CC(=O)c1ccc(NC(=O)CCc2nc(-c3ccc(C)cc3)no2)cc1`, inactive: -15.3%; that for `Cc1nc(-n2nc(C)c(CCC(C)C)c2C)sc1C(=O)Nc1ccc(Br)cc1`, inactive: 26%.
Take `Cc1c(NC(=O)c2ccc(Br)o2)cccc1-c1nc2ccccc2o1`: the “activity change, positive = activation” value is inactive: -32.4%.
For the compound `Cc1cccc(C)c1NC(=O)CCS(=O)(=O)c1cccc2nonc12`, the “activity change, positive = activation” value was inactive: -6.68%.
The result for `CCOc1ccccc1NC(=O)c1cc2c(=O)n(Cc3cccnc3)ccc2nc1C` reads inactive: -6.37%; that for `CCOC(=O)c1ccc(NC2=CC(c3ccc(F)cc3)N(c3ccc(C(=O)OCC)cc3)C2=O)cc1` (stereo not drawn), inactive: -1.58%.
The result for `Cc1ccccc1Cn1c(SCc2ccc(C(=O)NC3CCCC3)cc2)nc2ccncc21` reads inactive: -4.95%.
Regarding `CCCSc1nc2sc3c(c2c(=O)n1-c1cccc(Br)c1)CC(C)(C)OC3`, the “activity change, positive = activation” value is inactive: -6.35%.
With `CCOC(=O)c1c(C)[nH]c(C)c1S(=O)(=O)N1CCC(C(=O)Nc2ccc(C)c(Cl)c2)CC1`, the “activity change, positive = activation” value is inactive: -28.4%.
The result for `CC(=O)Nc1ccc(Nc2ncnc3c2c(-c2ccccc2)cn3-c2ccc(C)c(Cl)c2)cc1` reads inactive: -36.2%.
Consider `COc1ccccc1N=c1scc(-c2ccc(S(=O)(=O)N3CCCC3)cc2)n1C`, for which the “activity change, positive = activation” value is inactive: -77.9%.
The result for `COc1ccccc1CNC(=O)CCNS(=O)(=O)c1cccc2nsnc12` reads inactive: -3.96%; that for `Cc1nc2c(c(C)nn2-c2ccccc2)c(C)c1CCC(=O)NCCc1ccc(Cl)cc1`, inactive: -13.4%.
Turning to `COc1cccc(NC(=O)N2CCN(C(=O)c3nsc4ccccc34)CC2)c1`, the “activity change, positive = activation” value was inactive: -10.2%.
For the compound `COc1ccc(NC(=O)N2CCN3CCCCC3C2)cc1OC` (stereo not drawn), the “activity change, positive = activation” value is inactive: -2.29%.
The result for `CCOC(=O)c1cc(-c2ccccc2)n(-c2cccc(C(=O)N(C)c3ccc(C)cc3)c2)c1C` reads inactive: -36.9%; that for `CC(C)[C@H](O)C(=O)N[C@@H](C)C(=O)N[C@@H]1C(=O)N(C)CCc2ccccc21`, inactive: -2.25%; that for `Fc1ccc(N2CCN(Cc3cccn3-c3nnc(N4CCN(C5CCCCC5)CC4)s3)CC2)cc1`, inactive: -6.45%.
Take `Cc1ccc(NC(=O)C2CCCN(c3cnccn3)C2)c(C)c1` (stereo not drawn): the “activity change, positive = activation” value was inactive: -2.51%.
The result for `CCc1ccc(-c2nc(CSCC(=O)N3CCN(c4ccc(F)cc4)CC3)c(C)o2)cc1` reads inactive: -34.7%; that for `CCc1ccccc1NC(=O)c1cc2c(Cl)nc3ccccc3c2s1`, inactive: -42.6%.
